# Measurements as given in the supplement of paper PMC8728848.
# The list shows a part of the results.
# B1: E-Selectin (Mus musculus), Q00690 (protein)
# chain: MNASRFLSALVFVLLAGESTAWYYNASSELMTYDEASAYCQRDYTHLVAIQNKEEINYLNSNLKHSPSYYWIGIRKVNNVWIWVGTGKPLTEEAQNWAPGEPNNKQRNEDCVEIYIQRTKDSGMWNDERCNKKKLALCYTASCTNASCSGHGECIETINSYTCKCHPGFLGPNCEQAVTCKPQEHPDYGSLNCSHPFGPFSYNSSCSFGCKRGYLPSSMETTVRCTSSGEWSAPAPACHVVECEALTHPAHGIRKCSSNPGSYPWNTTCTFDCVEGYRRVGAQNLQCTSSGIWDNETPSCKAVTCDAIPQPQNGFVSCSHSTAGELAFKSSCNFTCEQSFTLQGPAQVECSAQGQWTPQIPVCKAVQCEALSAPQQGNMKCLPSASGPFQNGSSCEFSCEEGFELKGSRRLQCGPRGEWDSKKPTCSAVKCDDVPRPQNGVMECAHATTGEFTYKSSCAFQCNEGFSLHGSAQLECTSQGKWTQEVPSCQVVQCPSLDVPGKMNMSCSGTAVFGTVCEFTCPDDWTLNGSAVLTCGATGRWSGMPPTCEAPVSPTRPLVVALSAAGTSLLTSSSLLYLLMRYFRKKAKKFVPASSCQSLQSFENYHVPSYNV
# Assays:
# Assay in all cases: glycan array binding signal (z-score within array); higher = stronger binding
# Settings in all cases: glycan notation: IUPAC condensed, linker removed
# [1] = biological target: GalNAc(b1-3)Gal
# Summary of the method: (§1)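 The binding signal is a Z-score computed within each array and averaged over linkers. Arrays of the same protein sequence at different concentrations or buffers were also averaged together. Data originate from 3228 arrays in the Consortium for Functional Glycomics database, kept only where the protein sequence was available.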
# [2] = biological target: GalNAc(b1-3)Gal(a1-4)Gal(b1-4)GlcNAc
# Summary of the method: as §1
# [3] = biological target: GalNAc(b1-3)GalNAc
# Summary of the method: as §1
# [4] = biological target: GalNAc(b1-4)GlcNAc
# Summary of the method: as §1
# [5] = biological target: Glc(a1-4)Glc
# Summary of the method: as §1
# [6] = biological target: Glc(a1-6)Glc(a1-6)Glc
# Summary of the method: as §1
# [7] = biological target: Glc(b1-4)Glc
# Summary of the method: as §1
# [8] = biological target: Glc(b1-6)Glc
# Summary of the method: as §1
# [9] = biological target: GlcA(b1-3)Gal
# Summary of the method: as §1
# [10] = biological target: GlcA(b1-3)GlcNAc
# Summary of the method: as §1
# [11] = biological target: GlcA(b1-6)Gal
# Summary of the method: as §1
# [12] = biological target: GlcNAc(a1-3)Gal(b1-4)GlcNAc
# Summary of the method: as §1
# [13] = biological target: GlcNAc(a1-6)Gal(b1-4)GlcNAc
# Summary of the method: as §1
# [14] = biological target: GlcNAc(b1-2)Gal(b1-3)GalNAc
# Summary of the method: as §1
# [15] = biological target: GlcNAc(b1-2)Man(a1-3)[GlcNAc(b1-2)Man(a1-6)]Man(b1-4)GlcNAc(b1-4)GlcNAc
# Summary of the method: as §1
# [16] = biological target: GlcNAc(b1-3)Gal
# Summary of the method: as §1
# [17] = biological target: GlcNAc(b1-3)Gal(b1-3)GalNAc
# Summary of the method: as §1
# [18] = biological target: GlcNAc(b1-3)Gal(b1-4)Glc
# Summary of the method: as §1
# [19] = biological target: GlcNAc(b1-3)Gal(b1-4)GlcNAc
# Summary of the method: as §1
# [20] = biological target: GlcNAc(b1-3)Gal(b1-4)GlcNAc(b1-3)Gal(b1-4)GlcNAc
# Summary of the method: as §1
# [21] = biological target: GlcNAc(b1-3)GalNAc
# Summary of the method: as §1
# [22] = biological target: GlcNAc(b1-3)Man
# Summary of the method: as §1
# [23] = biological target: GlcNAc(b1-3)[GlcNAc(b1-4)][GlcNAc(b1-6)]GlcNAc
# Summary of the method: as §1
# [24] = biological target: GlcNAc(b1-3)[GlcNAc(b1-6)]Gal(b1-4)GlcNAc
# Summary of the method: as §1
# [25] = biological target: GlcNAc(b1-3)[GlcNAc(b1-6)]GalNAc
# Summary of the method: as §1
# [26] = biological target: GlcNAc(b1-3)[GlcNAc(b1-6)]GlcNAc(b1-4)GlcNAc
# Summary of the method: as §1
# [27] = biological target: GlcNAc(b1-4)Gal(b1-4)GlcNAc
# Summary of the method: as §1
# [28] = biological target: GlcNAc(b1-4)GlcNAc
# Summary of the method: as §1
# [29] = biological target: GlcNAc(b1-4)GlcNAc(b1-4)GlcNAc
# Summary of the method: as §1
# [30] = biological target: GlcNAc(b1-4)GlcNAc(b1-4)GlcNAc(b1-4)GlcNAc(b1-4)GlcNAc
# Summary of the method: as §1
# [31] = biological target: GlcNAc(b1-4)GlcNAc(b1-4)GlcNAc(b1-4)GlcNAc(b1-4)GlcNAc(b1-4)GlcNAc
# Summary of the method: as §1
# [32] = biological target: GlcNAc(b1-4)[GlcNAc(b1-6)]GalNAc
# Summary of the method: as §1
# [33] = biological target: GlcNAc(b1-6)Gal(b1-4)GlcNAc
# Summary of the method: as §1
# [34] = biological target: GlcNAc(b1-6)GalNAc
# Summary of the method: as §1
# [35] = biological target: GlcNAc3Prop(b1-4)GlcNAc
# Summary of the method: as §1
# [36] = biological target: Kdn(a2-3)Gal(b1-3)GlcNAc
# Summary of the method: as §1
# [37] = biological target: Kdn(a2-3)Gal(b1-4)GlcNAc
# Summary of the method: as §1
# [38] = biological target: Man(a1-2)Man(a1-2)Man(a1-3)Man
# Summary of the method: as §1
# [39] = biological target: Man(a1-2)Man(a1-2)Man(a1-6)[Man(a1-3)]Man
# Summary of the method: as §1
# [40] = biological target: Man(a1-2)Man(a1-3)Man
# Summary of the method: as §1
# [41] = biological target: Man(a1-2)Man(a1-3)[Man(a1-2)Man(a1-6)]Man
# Summary of the method: as §1
# [42] = biological target: Man(a1-2)Man(a1-3)[Man(a1-2)Man(a1-6)]Man(a1-6)[Man(a1-2)Man(a1-2)Man(a1-3)]Man
# Summary of the method: as §1
# [43] = biological target: Man(a1-2)Man(a1-3)[Man(a1-2)Man(a1-6)]Man(a1-6)[Man(a1-2)Man(a1-2)Man(a1-3)]Man(b1-4)GlcNAc(b1-4)GlcNAc
# Summary of the method: as §1
# [44] = biological target: Man(a1-2)Man(a1-3)[Man(a1-6)]Man(a1-6)[Man(a1-2)Man(a1-3)]Man(b1-4)GlcNAc(b1-4)GlcNAc
# Summary of the method: as §1
# [45] = biological target: Man(a1-2)Man(a1-6)[Man(a1-3)]Man(a1-6)[Man(a1-2)Man(a1-2)Man(a1-3)]Man
# Summary of the method: as §1
# [46] = biological target: Man(a1-2)Man(a1-6)[Man(a1-3)]Man(a1-6)[Man(a1-2)Man(a1-2)Man(a1-3)]Man(b1-4)GlcNAc(b1-4)GlcNAc
# Summary of the method: as §1
# [47] = biological target: Man(a1-3)[Man(a1-6)]Man
# Summary of the method: as §1
# [48] = biological target: Man(a1-3)[Man(a1-6)]Man(a1-6)[Man(a1-2)Man(a1-3)]Man(b1-4)GlcNAc(b1-4)GlcNAc
# Summary of the method: as §1
# [49] = biological target: Man(a1-3)[Man(a1-6)]Man(a1-6)[Man(a1-3)]Man
# Summary of the method: as §1
# [50] = biological target: Man(a1-3)[Man(a1-6)]Man(a1-6)[Man(a1-3)]Man(b1-4)GlcNAc(b1-4)GlcNAc
# Summary of the method: as §1
# [51] = biological target: Man(a1-3)[Man(a1-6)]Man(b1-4)GlcNAc(b1-4)GlcNAc
# Summary of the method: as §1
# [52] = biological target: Man(a1-6)Man
# Summary of the method: as §1
# [53] = biological target: Man(b1-4)GlcNAc
# Summary of the method: as §1
# [54] = biological target: Neu5Ac(a2-3)Gal
# Summary of the method: as §1
# [55] = biological target: Neu5Ac(a2-3)Gal(b1-3)GalNAc
# Summary of the method: as §1
# [56] = biological target: Neu5Ac(a2-3)Gal(b1-3)GalNAc(b1-3)Gal(a1-4)Gal(b1-4)Glc
# Summary of the method: as §1
# [57] = biological target: Neu5Ac(a2-3)Gal(b1-3)GalNAc(b1-3)Gal(b1-4)GlcNAc
# Summary of the method: as §1
# [58] = biological target: Neu5Ac(a2-3)Gal(b1-3)GalNAc(b1-4)[Neu5Ac(a2-3)]Gal(b1-4)Glc
# Summary of the method: as §1
# [59] = biological target: Neu5Ac(a2-3)Gal(b1-3)GalNAc6S
# Summary of the method: as §1
# [60] = biological target: Neu5Ac(a2-3)Gal(b1-3)GlcNAc
# Summary of the method: as §1
binder,measurement,setting,value
B1,glycan array binding signal (z-score),[1],-0.283
same,glycan array binding signal (z-score),[2],-0.339
same,glycan array binding signal (z-score),[3],-0.3
same,glycan array binding signal (z-score),[4],-0.332
same,glycan array binding signal (z-score),[5],-0.307
same,glycan array binding signal (z-score),[6],-0.343
same,glycan array binding signal (z-score),[7],-0.299
same,glycan array binding signal (z-score),[8],-0.291
same,glycan array binding signal (z-score),[9],-0.296
same,glycan array binding signal (z-score),[10],-0.247
same,glycan array binding signal (z-score),[11],-0.227
same,glycan array binding signal (z-score),[12],-0.361
same,glycan array binding signal (z-score),[13],-0.338
same,glycan array binding signal (z-score),[14],-0.238
same,glycan array binding signal (z-score),[15],-0.088
same,glycan array binding signal (z-score),[16],-0.346
same,glycan array binding signal (z-score),[17],-0.238
same,glycan array binding signal (z-score),[18],-0.322
same,glycan array binding signal (z-score),[19],-0.293
same,glycan array binding signal (z-score),[20],-0.264
same,glycan array binding signal (z-score),[21],-0.248
same,glycan array binding signal (z-score),[22],-0.324
same,glycan array binding signal (z-score),[23],-0.326
same,glycan array binding signal (z-score),[24],-0.36
same,glycan array binding signal (z-score),[25],-0.279
same,glycan array binding signal (z-score),[26],-0.371
same,glycan array binding signal (z-score),[27],-0.265
same,glycan array binding signal (z-score),[28],-0.324
same,glycan array binding signal (z-score),[29],-0.26
same,glycan array binding signal (z-score),[30],-0.282
same,glycan array binding signal (z-score),[31],-0.365
same,glycan array binding signal (z-score),[32],-0.316
same,glycan array binding signal (z-score),[33],-0.344
same,glycan array binding signal (z-score),[34],-0.272
same,glycan array binding signal (z-score),[35],-0.301
same,glycan array binding signal (z-score),[36],-0.32
same,glycan array binding signal (z-score),[37],-0.305
same,glycan array binding signal (z-score),[38],-0.313
same,glycan array binding signal (z-score),[39],-0.228
same,glycan array binding signal (z-score),[40],-0.253
same,glycan array binding signal (z-score),[41],-0.348
same,glycan array binding signal (z-score),[42],-0.241
same,glycan array binding signal (z-score),[43],-0.28
same,glycan array binding signal (z-score),[44],-0.332
same,glycan array binding signal (z-score),[45],-0.377
same,glycan array binding signal (z-score),[46],-0.303
same,glycan array binding signal (z-score),[47],-0.314
same,glycan array binding signal (z-score),[48],-0.321
same,glycan array binding signal (z-score),[49],-0.284
same,glycan array binding signal (z-score),[50],-0.268
same,glycan array binding signal (z-score),[51],-0.288
same,glycan array binding signal (z-score),[52],-0.287
same,glycan array binding signal (z-score),[53],-0.317
same,glycan array binding signal (z-score),[54],-0.277
same,glycan array binding signal (z-score),[55],-0.313
same,glycan array binding signal (z-score),[56],-0.321
same,glycan array binding signal (z-score),[57],-0.138
same,glycan array binding signal (z-score),[58],-0.283
same,glycan array binding signal (z-score),[59],-0.269
same,glycan array binding signal (z-score),[60],-0.304
